Values joined by “and” are separate entries in the source; they are usually repeats but may differ in a detail not shown here. Equal entries are not always repeated. Inconclusive results, whose numbers are uncertain, are shown with a selection of clear calls. A potency beside an inconclusive call is a rough fit, not a confirmed value. More than one record can exist for a structure, and the calls need not agree. Active and inactive are the calls of the source. Calls follow the shape of the dose curve; as a rule, active = well fitted activation curve with a large enough effect in the repeat runs; inconclusive = weak or mixed curves; inactive = flat fitted curve, though single readings scatter.
Assay: A CellTox Green Cytotoxicity Assay to monitor cytotoxicity in HepG2 cells - 32 hour (AID 1224883); also: nearly all actives have a fitted effect of over 50% in size
Settings: CellTox Green fluorescence; series mostly up to 76.8 µM
Description: National Center for Advancing Translational Sciences [NCATS]
NIH Chemical Genomics Center [NCGC]
U.S. Environmental Protection Agency [EPA]
National Institutes of Environmental Health Sciences [NIEHS]
National Toxicology Program [NTP]
Cell-based models are critical for drug discovery. Determining the natural cytotoxic effects resulting from test compounds is an essential research activity. A CellTox Green Cytotoxicity Assay to monitor cytotoxicity in real time of continues cell culture during 40 hours of the compound treatment was used to screen Tox21 10K library compounds in HepG2 cells. CellTox Green Cytotoxicity Assay is a nonlytic, homogeneous, biofluorescent method to measure cytotoxicity in cell culture after experimental manipulation. The assay system uses a proprietary asymmetric cyanine dye that is excluded from viable cells but preferentially stains the dead cell's DNA. […] Viable cells produce no appreciable increases in fluorescence. Therefore, the fluorescence signal produced by the binding interaction with dead cell DNA is proportional to cytotoxicity.
The mixture of HepG2 cell suspension and reagents were dispensed at 600cells/6 ul/well in 1536-well tissue culture treated black solid bottom plates using a Multidrop dispenser. After the assay plates were incubated at a 37 C/5% CO2 incubator for 5 hours, 23 nL of compounds dissolved in DMSO, positive and negative controls was transferred to the assay plate by a pintool work station. The plates were incubated at 37 C for 40 hours. The fluorescence intensity were measured at 0h, 8h, 16h, 24h, 32h and 40h time points using ViewLux plate reader during compound treatment.
Potency is read from the fitted curve at half-maximal effect; tags tell the direction and shape of the fitted curve.

SMILES	Potency
Oc1ccc(Cl)c(Cl)c1Cl	inconclusive: 57 µM [activator, single point]
N#CCCCl	inactive
O=C(O)CC(Cl)C(=O)O (stereo not given)	inconclusive: 55.6 µM [activator, single point]
CCOCn1c(-c2ccc(Cl)cc2)c(C#N)c(Br)c1C(F)(F)F	active: 12.3 µM
CCOC(=O)Nc1cccc(OC(=O)Nc2ccccc2)c1	inconclusive: 61.6 µM [activator, single point]
O=NN1CCCC1	inconclusive: 57.5 µM [activator, single point] and inconclusive: 21.9 µM [activator, partial curve, poor fit]
CCOP(=O)(OCC)SCCSCC	inactive and inconclusive: 49 µM [activator, partial curve, poor fit]
CC(C(O)c1ccccc1)N(C)C/C=C/c1ccccc1 (stereo not given)	inconclusive: 30.1 µM [activator, single point]
CC(Cl)CCl (stereo not given)	inactive
OCCCCO	inactive
CCN(CC)c1c([N+](=O)[O-])cc(C(F)(F)F)c(N)c1[N+](=O)[O-]	inconclusive: 54.9 µM [activator, single point]
CC(C)(C)c1ccccc1O	inconclusive: 49 µM [activator, single point]
CCCN(CCOc1c(Cl)cc(Cl)cc1Cl)C(=O)n1ccnc1	inconclusive: 39.7 µM [activator, partial curve, poor fit] and inconclusive: 43.6 µM [activator, partial curve]
CC(=O)C(Cl)C(=O)N(C)C (stereo not given)	inactive
COP(=S)(OC)Oc1cc(Cl)c(Cl)cc1Cl	inactive
O=S(=O)(O)OOS(=O)(=O)O	inconclusive: 55.5 µM [activator, single point]
S=C=NCc1ccccc1	inconclusive: 55.5 µM [activator, single point]
Oc1cc(Cl)c(Cl)c(Cl)c1Cl	inconclusive: 60.2 µM [activator, partial curve, poor fit]
C1CCC2CCCCC2C1 (stereo not given)	inactive
O=C1NCN(c2ccccc2)C12CCN(CCCOc1ccc(F)cc1)CC2	inconclusive: 26.8 µM [activator, single point]

SMILES	Potency
CCCC[n+]1ccccc1	inconclusive: 21.9 µM [activator, single point]
O=[N+]([O-])c1c2ccccc2cc2ccccc12	inconclusive: 60.9 µM [activator, single point]
OCC1CO1 (stereo not given)	inconclusive: 44.4 µM [activator, partial curve] and inconclusive: 61.6 µM [activator, single point]
Cc1cc(C2CC2)nc(Nc2ccccc2)n1	inconclusive: 54.9 µM [activator, single point]
COc1cccc2c1C(=O)c1c(O)c3c(c(O)c1C2=O)C[C@@](O)(C(=O)CO)CC3OC1CC(N2CCOC(OC)C2)C(O)C(C)O1 (stereo not given in full)	active: 0.0425 µM
C#CCN1C(=O)COc2cc(F)c(N3C(=O)C4=C(CCCC4)C3=O)cc21	inactive
O=c1[nH]c2ccccc2n1CCCN1CCC(n2c(=O)[nH]c3cc(Cl)ccc32)CC1	active: 21.3 µM
CCCCN(CCCC)C(=S)[S-].CCCCN(CCCC)C(=S)[S-].[Zn+2]	active: 21.9 µM
O=C(CBr)c1ccc(O)cc1	inconclusive: 54.9 µM [activator, single point]
CC(=O)/C=C/c1ccc2c(c1)OCO2	inconclusive: 55.2 µM [activator, single point]
C[C@@H]1CC2=CC(=O)CC[C@@H]2[C@H]2CC[C@@]3(C)[C@@H](CC[C@]3(C)O)[C@@H]21	inactive
CCCn1cc[n+](C)c1	inactive
Cc1cc(Cl)ccc1N	active: 38.9 µM
CCC(CC)Nc1c([N+](=O)[O-])cc(C)c(C)c1[N+](=O)[O-]	inconclusive: 54.9 µM [activator, single point]
ClCc1ccccc1CCl	inconclusive: 61.6 µM [activator, single point]
CC1(c2ccc(Oc3ccccc3)cc2)OC(=O)N(Nc2ccccc2)C1=O (stereo not given)	inconclusive: 55.3 µM [activator, single point]
Cc1cc(C(F)(C(F)(F)F)C(F)(F)F)ccc1NC(=O)c1cccc(I)c1C(=O)NC(C)(C)CS(C)(=O)=O	inactive
O=[N+]([O-])c1ccc(CBr)cc1	inactive
COP(=S)(OC)Oc1nc(Cl)c(Cl)cc1Cl	inactive
COP(=O)(OC)O/C(=C/Cl)c1cc(Cl)c(Cl)cc1Cl	inconclusive: 32.7 µM [activator, partial curve]

Reference: PubChem BioAssay (Tox21)
